In article PMC6919601, “Identification of Plasmodium dipeptidyl aminopeptidase allosteric inhibitors by high throughput screening” (PLoS ONE, 2019):
Several values for one entry are separate records, joined by “and”; a condition that tells them apart may be missing. Equal values may be shown once. The campaign covered roughly 110,000 compounds. About 230 (0.21%) showed an effect of 50% or more. The list shows a part of the results.

Biological target: DPAP1 (Plasmodium falciparum, UniProt Q8IIJ9)
Assay: primary screen, percent inhibition; read by cleavage of a fluorogenic dipeptide substrate; higher = more effect of the substance
Parameters: species or system P. falciparum D10 trophozoite lysates; single well
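Further: 30 min substrate incubation versus DMSO and 10 µM JCP410 controls.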

Sequence of DPAP1 (Q8IIJ9 whole entry, looked up): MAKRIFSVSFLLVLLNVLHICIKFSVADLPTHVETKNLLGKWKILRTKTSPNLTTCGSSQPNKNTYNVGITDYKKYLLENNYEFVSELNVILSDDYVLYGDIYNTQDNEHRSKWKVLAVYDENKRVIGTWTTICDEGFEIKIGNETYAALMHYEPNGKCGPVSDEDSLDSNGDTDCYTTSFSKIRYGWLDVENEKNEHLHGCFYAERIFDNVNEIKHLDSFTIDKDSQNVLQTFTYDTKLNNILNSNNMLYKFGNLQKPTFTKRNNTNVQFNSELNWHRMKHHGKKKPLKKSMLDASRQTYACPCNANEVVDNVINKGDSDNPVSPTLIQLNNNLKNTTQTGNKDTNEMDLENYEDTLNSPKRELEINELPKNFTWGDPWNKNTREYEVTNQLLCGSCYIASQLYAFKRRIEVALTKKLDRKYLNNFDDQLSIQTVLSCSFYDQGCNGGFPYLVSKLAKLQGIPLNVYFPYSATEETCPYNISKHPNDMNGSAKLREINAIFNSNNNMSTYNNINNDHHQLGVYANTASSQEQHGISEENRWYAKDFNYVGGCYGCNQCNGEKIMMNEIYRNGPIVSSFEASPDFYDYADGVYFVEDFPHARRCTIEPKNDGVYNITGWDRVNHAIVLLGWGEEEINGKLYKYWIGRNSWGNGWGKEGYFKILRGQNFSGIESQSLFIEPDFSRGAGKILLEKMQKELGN

SMILES | % Inhibition @ 10 uM
COc1ccccc1NC(=O)Nc1cccc2ccccc12 | -3.94%
Cc1ccc(C(=O)NCCCNCCCNC(=O)c2ccc(C)nc2)cn1 | -9.83%
O=C1S/C(=C\c2ccco2)C(=O)N1Cc1ccc(F)cc1 | 0.121%
CCN(CC)C(=O)CN(c1cccc(OC)c1)S(=O)(=O)c1ccccc1 | 1.59% and -5.07%
CC(=O)Nc1ccc(N(C)C(C)=O)cc1 | -11.3%
O=C(c1ccc([N+](=O)[O-])o1)N1CCOCC1 | -0.0217%
Nc1nc2n(n1)C(=O)CC(c1ccccc1)N2 (stereo not shown) | 0.0289%
O=C(NC1CCCCCC1)C1c2ccccc2C(=O)N1CCC1=CCCCC1 (stereo not shown) | -0.668%
CCSc1ncc(Cl)c(C(=O)N(Cc2ccc(Cl)cc2)C2CCS(=O)(=O)C2)n1 (stereo not shown) | -1.11%
Cc1cc(C)n2nc(SC(C)C(=O)NCc3ccccc3Cl)nc2n1 (stereo not shown) | -4.06%
Cc1ccc(C)c(S(=O)(=O)/N=C2\C=CC(=O)c3ccccc32)c1 | 4.74%
COc1ccccc1OCC(O)Cn1cnc2ccccc21 (stereo not shown) | -11%
CCn1c(C(=O)O)c(CNC2CCCCCC2)c2ccc(C)cc21 | -2.97%
CCCCc1nn2c(C)c(-c3ccc(Br)cc3)nc2s1 | -2.71%
CCO/C(O)=C1\C(=O)CCn2c1nc1ccccc12 | -2.91%
CCCc1nn(C)c(C(=O)Nc2ccccc2)c1Cl | 0.343%
C=Cc1ccc(Cn2c(C)c(CNCC(C)c3ccccc3)c(C(=O)O)c2C)cc1 (stereo not shown) | -3.67%
CCCCN(C1CCN(CC)CC1)S(=O)(=O)c1c(C)[nH]c(C)c1C(=O)OCC | -5.69%
COc1ccccc1OCCn1cc(/C=C2/C(=N)N3OC(C)=CC3=NC2=O)c2ccccc21 | -1.43%
COc1ccc(CN2CNc3nc4ccccc4n3C2)cc1 | 3.73%
O=C(CCc1nc2cccnc2n1-c1ccccc1)NCc1ccc(CN2CCOCC2)o1 | -5.25%
Cc1ccc(NC(=O)CN(c2ccc(F)cc2)S(=O)(=O)c2ccccc2)c(C)c1 | 6.65%

SMILES | % Inhibition @ 10 uM
O=C(O)C1C2c3ccccc3C(c3ccccc32)C1C(=O)NCc1ccccc1 (stereo not shown) | 1.64%
COc1ccc(-c2nc3cc(Br)cnc3[nH]2)cc1 | 2.4%
CCN(CC)CCCNC(=O)Cn1cc2c(n1)-c1c(oc(C(=O)N3CCOCC3)c1C)CC2 | 5.69%
Cc1ccc(S(=O)(=O)N2CCN(C(=O)c3ccc(Br)cc3)CC2)c(C)c1 | 1.52%
Cc1cc(=O)n2nc(N3CCC(C(=O)NCCCN4CCOCC4)CC3)sc2n1 | 3%
Cn1c(C(=O)NCc2cccnc2)cc2c(=O)n3ccccc3nc21 | 2.4%
O=S(=O)(Nc1ccccc1F)c1ccc(F)cc1 | 0.815%
Cc1ccc(CNC(=O)CN(c2cccc3ccccc23)S(C)(=O)=O)cc1 | -6.05%
O=C(NCc1ccc(Cl)cc1)c1cnn2ccccc12 | -6.52%
CN(C)CCN(C(=O)c1nc2ccccc2s1)c1nc2ccc(Cl)cc2s1 | -4.16%
COC(=O)C1C(=O)c2c(n[nH]c2C)CC1(C)C (stereo not shown) | -2.55%
CC1CCN(C(=O)CCCc2nnc3n(C)c(=O)c4sccc4n23)CC1 | -7.48%
CN(C)CCN(Cc1ccccc1)Cc1ccccc1Br | 2.7%
CCN(CC)c1nc(N2CCOCC2)nc(N2CCOCC2)n1 | -6.25%
Cc1ccc2c(c1)c(-c1ccccc1)c(-c1ccccc1)n2CC(O)CN1CCCCC1 (stereo not shown) | -8.99%
COc1ccc(-c2csc(-c3c[nH]c4ccccc34)n2)cc1 | 0.291%
CCOc1cc(/C=C(/C#N)C(N)=O)ccc1O | -2.66%
CCC(C)[C@@H](C(=O)NCCc1ccccc1)N1Cc2ccccc2C1=O (stereo partly shown) | 1.26%
COc1ccc(C)cc1NC(=O)Cn1cnc2c1c(=O)n(C)c(=O)n2C | -3.87%
CC(NC(=O)c1ccco1)c1cc2c(cc1Cl)OCCCO2 (stereo not shown) | -1.28%
O=C(NCC1CCCO1)c1ccc(Cn2c(SCc3ccc(F)cc3)nc3cccnc32)cc1 (stereo not shown) | 9.02%
Cc1nn(-c2ccccc2)c(-n2cccc2)c1C(=O)NCc1cccc(Cl)c1 | 3.4%

SMILES | % Inhibition @ 10 uM
COc1ccc2c(CNCc3ccc(OC(C)C)cc3)c(C(=O)O)[nH]c2c1 | 0.711%
O=C1NC(=O)/C(=C\c2ccc(OCc3cccc(C(=O)O)c3)cc2)N1 | 3.49%
Fc1ccc(N2CCN(Cc3cc(Br)cs3)CC2)cc1 | -7.6%
FC(F)(F)c1cc(-c2ccccc2)nc(-n2ccnc2)n1 | -4.43%
Nc1c(C(=O)Nc2c(F)cc(F)cc2Br)sc2nc3c(cc12)CCC3 | -4.15%
O=C(Nc1cccnc1)c1cc2nc(-c3ccc(Cl)s3)cc(C(F)(F)F)n2n1 | 5.54%
CCOc1ccc(C2=CC(c3ccc(OC(F)F)cc3)n3nnnc3N2)cc1Cl (stereo not shown) | 0.0842%
COc1ccc(S(=O)(=O)N2CCCCC2)cc1 | -2.21%
COc1ccc(CCNS(=O)(=O)c2ccc(CN3C(=O)c4cccnc4C3=O)s2)cc1OC | -5.16%
NS(=O)(=O)c1ccc(CCNC(=O)CC(c2ccccc2)c2ccccc2)cc1 | -12.8%
CC[C@H](C)[C@H](NC(=O)c1cccc(F)c1)C(=O)N[C@@H](CCc1ccccc1)C(=O)CO | -7.36%
CC(NC(=O)c1ccccc1)C(O)c1ccccc1 (stereo not shown) | 0.035%
CCc1c(C#N)c(SCC(=O)Nc2cccc(OC)c2)nc2c1C(=O)CC(C)(C)C2 | 0.722%
COc1ccc(OCC2c3cc(OC)c(OC)cc3CCN2C(=O)c2cc(OC)cc(OC)c2)cc1 (stereo not shown) | -2.7%
C=Cn1nccc1C(O)(CCCN(C)C)c1ccncc1 (stereo not shown) | 1.89%
Cc1ccc(S(=O)(=O)Nc2nn(CC(C)C)c3nc4ccccc4cc23)cc1 | -0.671%
Cc1cc(C)nc(SCC(=O)c2ccc(F)c(C)c2)n1 | 5.63%
Cc1ccsc1CN1CCCC(CO)C1 (stereo not shown) | -3.27%
COC(=O)c1c(NC(=O)c2cccnc2Cl)sc2c1CCCCC2 | 1.13%
Cc1cccn2cc(CNC(=O)c3ccc(Br)o3)nc12 | 4.86%
